# Results reported in the supplement of paper PMC8728848.
# The other results are listed elsewhere or left out.
# How the values were obtained:
# Assay in all cases: glycan array binding signal (z-score within array); higher = stronger binding
# Conditions in all cases: glycan notation: IUPAC condensed, linker removed
# [1] = biological target: Gal(b1-3)GlcNAc(b1-3)Gal(b1-3)GlcNAc
# Procedure, shortened: (§1)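 Glycan array data were curated from 3228 arrays in the Consortium for Functional Glycomics database and kept only where the protein sequence was available. Glycan names were converted to IUPAC-condensed notation, and columns mapping to the same glycan were averaged. The binding signal is a within-array Z-score, averaged across arrays of the same protein sequence at different concentrations or buffers and across linkers. Negative Z-scores can be read as non-binding.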
# [2] = biological target: Gal(b1-3)GlcNAc(b1-3)Gal(b1-4)Glc
# Procedure, shortened: as §1
# [3] = biological target: Gal(b1-3)GlcNAc(b1-3)Gal(b1-4)GlcNAc
# Procedure, shortened: as §1
# [4] = biological target: Gal(b1-3)GlcNAc(b1-3)Gal(b1-4)GlcNAc(b1-2)Man(a1-3)[Gal(b1-3)GlcNAc(b1-3)Gal(b1-4)GlcNAc(b1-2)Man(a1-6)]Man(b1-4)GlcNAc(b1-4)GlcNAc
# Procedure, shortened: as §1
# [5] = biological target: Gal(b1-3)GlcNAc(b1-3)Gal(b1-4)GlcNAc(b1-2)[Gal(b1-3)GlcNAc(b1-3)Gal(b1-4)GlcNAc(b1-6)]Man(a1-6)[Gal(b1-3)GlcNAc(b1-3)Gal(b1-4)GlcNAc(b1-2)Man(a1-3)]Man(b1-4)GlcNAc(b1-4)[Fuc(a1-6)]GlcNAc
# Procedure, shortened: as §1
# [6] = biological target: Gal(b1-3)GlcNAc(b1-3)Gal(b1-4)GlcNAc(b1-3)Gal(b1-4)GlcNAc(b1-2)[Gal(b1-3)GlcNAc(b1-3)Gal(b1-4)GlcNAc(b1-3)Gal(b1-4)GlcNAc(b1-6)]Man(a1-6)[Gal(b1-3)GlcNAc(b1-3)Gal(b1-4)GlcNAc(b1-3)Gal(b1-4)GlcNAc(b1-2)Man(a1-3)]Man(b1-4)GlcNAc(b1-4)[Fuc(a1-6)]GlcNAc
# Procedure, shortened: as §1
# [7] = biological target: Gal(b1-3)GlcNAc(b1-3)Gal(b1-4)GlcNAc(b1-6)[Gal(b1-3)GlcNAc(b1-3)]Gal(b1-4)Glc
# Procedure, shortened: as §1
# [8] = biological target: Gal(b1-3)GlcNAc(b1-3)Gal(b1-4)[Fuc(a1-3)]GlcNAc
# Procedure, shortened: as §1
# [9] = biological target: Gal(b1-3)GlcNAc(b1-3)Gal(b1-4)[Fuc(a1-3)]GlcNAc(b1-6)[Gal(b1-3)GlcNAc(b1-3)]Gal(b1-4)Glc
# Procedure, shortened: as §1
# [10] = biological target: Gal(b1-3)GlcNAc(b1-3)GalNAc
# Procedure, shortened: as §1
# [11] = biological target: Gal(b1-3)GlcNAc(b1-6)Gal(b1-4)GlcNAc
# Procedure, shortened: as §1
# [12] = biological target: Gal(b1-3)GlcNAc(b1-6)GalNAc
# Procedure, shortened: as §1
# [13] = biological target: Gal(b1-3)GlcNAc(b1-6)[Gal(b1-3)]GalNAc
# Procedure, shortened: as §1
# Gal(b1-3)GlcNAc6S = biological target: Gal(b1-3)GlcNAc6S
# Procedure, shortened: as §1
# [14] = biological target: Gal(b1-3)[Fuc(a1-4)]GlcNAc
# Procedure, shortened: as §1
# [15] = biological target: Gal(b1-3)[Fuc(a1-4)]GlcNAc(b1-2)Man
# Procedure, shortened: as §1
# [16] = biological target: Gal(b1-3)[Fuc(a1-4)]GlcNAc(b1-2)Man(a1-3)[Gal(b1-3)[Fuc(a1-4)]GlcNAc(b1-2)Man(a1-6)]Man(b1-4)GlcNAc(b1-4)[Fuc(a1-6)]GlcNAc
# Procedure, shortened: as §1
# [17] = biological target: Gal(b1-3)[Fuc(a1-4)]GlcNAc(b1-3)Gal(b1-3)[Fuc(a1-4)]GlcNAc
# Procedure, shortened: as §1
# [18] = biological target: Gal(b1-3)[Fuc(a1-4)]GlcNAc(b1-3)Gal(b1-4)GlcNAc
# Procedure, shortened: as §1
# [19] = biological target: Gal(b1-3)[Fuc(a1-4)]GlcNAc(b1-3)Gal(b1-4)[Fuc(a1-3)]GlcNAc
# Procedure, shortened: as §1
# [20] = biological target: Gal(b1-3)[Fuc(a1-4)]GlcNAc(b1-6)GalNAc
# Procedure, shortened: as §1
# [21] = biological target: Gal(b1-3)[GlcNAc(b1-6)]GalNAc
# Procedure, shortened: as §1
# [22] = biological target: Gal(b1-3)[Neu5Ac(a2-6)]GalNAc
# Procedure, shortened: as §1
# [23] = biological target: Gal(b1-3)[Neu5Ac(a2-6)]GlcNAc(b1-4)Gal(b1-4)Glc
# Procedure, shortened: as §1
# [24] = biological target: Gal(b1-3)[Neu5Ac(a2-6)]GlcNAc(b1-6)Gal(b1-4)Glc
# Procedure, shortened: as §1
# [25] = biological target: Gal(b1-3)[Neu5Ac(b2-6)]GalNAc
# Procedure, shortened: as §1
# Gal(b1-4)Gal = biological target: Gal(b1-4)Gal
# Procedure, shortened: as §1
# [26] = biological target: Gal(b1-4)GalNAc(a1-3)[Fuc(a1-2)]Gal(b1-4)GlcNAc
# Procedure, shortened: as §1
# [27] = biological target: Gal(b1-4)GalNAc(b1-3)[Fuc(a1-2)]Gal(b1-4)GlcNAc
# Procedure, shortened: as §1
# Gal(b1-4)Glc = biological target: Gal(b1-4)Glc
# Procedure, shortened: as §1
# Gal(b1-4)Glc6S = biological target: Gal(b1-4)Glc6S
# Procedure, shortened: as §1
# Gal(b1-4)GlcNAc = biological target: Gal(b1-4)GlcNAc
# Procedure, shortened: as §1
# [28] = biological target: Gal(b1-4)GlcNAc(a1-6)Gal(b1-4)GlcNAc
# Procedure, shortened: as §1
# Gal(b1-4)GlcNAc(b1-2)Man = biological target: Gal(b1-4)GlcNAc(b1-2)Man
# Procedure, shortened: as §1
# [29] = biological target: Gal(b1-4)GlcNAc(b1-2)Man(a1-3)Man(b1-4)GlcNAc(b1-4)GlcNAc
# Procedure, shortened: as §1
# [30] = biological target: Gal(b1-4)GlcNAc(b1-2)Man(a1-3)[Gal(b1-4)GlcNAc(b1-2)Man(a1-6)]Man(b1-4)GlcNAc(b1-4)GlcNAc
# Procedure, shortened: as §1
# [31] = biological target: Gal(b1-4)GlcNAc(b1-2)Man(a1-3)[Gal(b1-4)GlcNAc(b1-2)Man(a1-6)]Man(b1-4)GlcNAc(b1-4)[Fuc(a1-6)]GlcNAc
# Procedure, shortened: as §1
# [32] = biological target: Gal(b1-4)GlcNAc(b1-2)Man(a1-3)[Gal(b1-4)GlcNAc(b1-2)Man(a1-6)][Gal(b1-4)GlcNAc(b1-4)]Man(b1-4)GlcNAc(b1-4)[Fuc(a1-6)]GlcNAc
# Procedure, shortened: as §1
binder,measurement,setting,value
GSL-I (Griffonia simplicifolia) (protein) FNLPNFWSDVKDNIIFQGDANTTAGTLQLCKTNQYGNPLQYRAGRALYSDPVQLWDNKTGSVASFYTEFTFFLKITGDGPADGLAFFLAPPDSDVKDAGAYLGLFNKSTATQPSKNQVVAVEFDTWKNTDFPEPSYRHIGINVNSIVSVATKRWEDSDIFSGKIATARISYDGSAKILTVVLSYPDGADYILSHSVDLSKNLPNPIRVGISASTGANQFLTVYVLSWRFSSALQSTSVNAAMGPEIIRTVV,glycan array binding signal (z-score),[1],-0.079
same,glycan array binding signal (z-score),[2],-0.194
same,glycan array binding signal (z-score),[3],-0.226
same,glycan array binding signal (z-score),[4],-0.197
same,glycan array binding signal (z-score),[5],0.136
same,glycan array binding signal (z-score),[6],-0.066
same,glycan array binding signal (z-score),[7],-0.151
same,glycan array binding signal (z-score),[8],-0.077
same,glycan array binding signal (z-score),[9],-0.247
same,glycan array binding signal (z-score),[10],-0.203
same,glycan array binding signal (z-score),[11],-0.171
same,glycan array binding signal (z-score),[12],-0.238
same,glycan array binding signal (z-score),[13],-0.148
same,glycan array binding signal (z-score),Gal(b1-3)GlcNAc6S,-0.277
same,glycan array binding signal (z-score),[14],-0.224
same,glycan array binding signal (z-score),[15],-0.235
same,glycan array binding signal (z-score),[16],0.288
same,glycan array binding signal (z-score),[17],-0.172
same,glycan array binding signal (z-score),[18],-0.324
same,glycan array binding signal (z-score),[19],-0.184
same,glycan array binding signal (z-score),[20],0.019
same,glycan array binding signal (z-score),[21],-0.102
same,glycan array binding signal (z-score),[22],-0.223
same,glycan array binding signal (z-score),[23],-0.233
same,glycan array binding signal (z-score),[24],-0.317
same,glycan array binding signal (z-score),[25],-0.281
same,glycan array binding signal (z-score),Gal(b1-4)Gal,-0.106
same,glycan array binding signal (z-score),[26],-0.246
same,glycan array binding signal (z-score),[27],-0.274
same,glycan array binding signal (z-score),Gal(b1-4)Glc,-0.194
same,glycan array binding signal (z-score),Gal(b1-4)Glc6S,-0.174
same,glycan array binding signal (z-score),Gal(b1-4)GlcNAc,-0.22
same,glycan array binding signal (z-score),[28],-0.189
same,glycan array binding signal (z-score),Gal(b1-4)GlcNAc(b1-2)Man,-0.107
same,glycan array binding signal (z-score),[29],-0.218
same,glycan array binding signal (z-score),[30],-0.265
same,glycan array binding signal (z-score),[31],-0.084
same,glycan array binding signal (z-score),[32],-0.258
